Values joined by “and” are separate entries in the source; they are usually repeats but may differ in a detail not shown here. Equal entries are not always repeated. Out of some 48,000 compounds screened, about 1,200 (2.5%) were called active. About 2% were inconclusive and are not listed.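 Rule for the calls: active = activation of at least 60% and not above a set upper limit (about 1 call in 100 departs from these limits); inconclusive = activation of 40% to 60%, or above that upper limit; inactive = activation under 40%.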 The list shows a part of the results.
molecular target: Probable G-protein coupled receptor 32 (Homo sapiens) (UniProt O75388); test: qHTS for Agonists of Human Resolvin D1 Receptor DRV1; conditions: CHO-K1 GPR32 beta-arrestin PathHunter luminescence, 90 min; at 76.9 µM; hits give high values; zero percent set by DMSO-only wells; note: 0% is about no effect
UniProt O75388, sequence (O75388 whole entry, looked up): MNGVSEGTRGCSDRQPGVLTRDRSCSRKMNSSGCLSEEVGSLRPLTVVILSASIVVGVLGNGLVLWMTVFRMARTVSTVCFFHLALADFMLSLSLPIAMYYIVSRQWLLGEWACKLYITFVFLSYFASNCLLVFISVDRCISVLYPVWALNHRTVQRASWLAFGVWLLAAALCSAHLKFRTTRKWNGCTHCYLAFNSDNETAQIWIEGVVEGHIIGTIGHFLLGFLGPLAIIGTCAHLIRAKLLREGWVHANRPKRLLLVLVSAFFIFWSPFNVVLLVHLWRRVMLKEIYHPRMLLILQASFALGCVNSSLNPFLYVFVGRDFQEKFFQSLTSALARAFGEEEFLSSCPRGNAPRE
In short: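 Beta-arrestin recruitment read-out: luminescence from complemented beta-Gal in CHO-K1 GPR32 PathHunter cells, measured 1 h after detection reagent at ambient temperature following 90 min compound exposure at 37 °C; DMSO served as basal (EC0) control.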

activation, active:
CC1=C(C(=O)OCc2ccc(C)cc2)C(c2ccccc2F)CC(=O)N1 (centres undefined) 66.8%, O=C1OC2(c3ccc(O)cc3Oc3cc(O)ccc32)c2ccccc21 111%

activation, inactive:
COc1ccccc1CNC(=O)Cn1c(=O)oc2cc(S(=O)(=O)N3CCCC3)ccc21 -7.12%, CCOC(=O)c1ccc(NC(=O)C2CC(=O)NC(=Nc3ccc(C)c(C)c3)S2)cc1 (centres undefined) -0.0505%, COc1ccccc1CNC(=O)c1cccc(N2CCCS2(=O)=O)c1 21.3%, Cc1ccc(N(CC(=O)NCCc2ccccc2C)S(=O)(=O)N(C)C)cc1 6.93%, Cc1cccc(NC(=O)Nc2ccc(F)cc2)n1 -11.1%, CCCCN(C)CCNC(=O)c1ccc(Cn2c(=O)[nH]c3cc(OC)c(OC)cc3c2=O)cc1 8.54%, CCCCCCCC/C=C\CCCCCCCC(=O)NCCc1ccc(O)c(O)c1 -7.6%, COc1cc(-c2nc(S(=O)(=O)c3ccc(Br)cc3)c(N3CCOCC3)o2)cc(OC)c1OC -23.1%, COc1ccc(-c2noc(N(c3ccc(F)c(Cl)c3)c3nc(-c4ccc(OC)c(OC)c4)no3)n2)cc1OC -1.93%, COc1ccc(Br)cc1C(=O)Nc1cccc2ccc(C)nc12 4.5%, CCc1ccc(CNC(=O)c2ccc3c(Cl)c4c(nc3c2)CCCC4)cc1 -3.68%, CCc1nc2nc(C)cc(Nc3cc(Cl)ccc3C)n2n1 -8.62%, CCOC(=O)c1cnn(-c2ccc(C(=O)Nc3ccc(OC(F)(F)F)cc3)cc2)c1N 28.9%, Cc1cc(N2CCN(c3cccc(C)c3C)CC2)n2cnnc2n1 6.1%, CC(=O)Nc1ccc(NC(=O)C2CCCN(S(=O)(=O)c3ccc4c(c3)CCCC(=O)N4)C2)cc1 (centres undefined) 16.8%, Cc1c(Cl)cccc1NC(=O)CCCn1nc(C)c2sc3ccccc3c2c1=O -11.2%, COCCCNC(=O)NC(CCC(C)C)c1c(-n2cccc2)sc2c1CCN(C)C2 (centres undefined) -27%, Cc1nnc(C)n1-c1ccc(C(=O)Nc2cccc(Br)c2)cc1 -2.06%, Cc1cccc(Cn2cc3c(=O)n(CC(=O)Nc4c(C)cccc4C)nc-3c3cc(F)ccc32)c1 -6.11%, COc1cccc(N2CCN(c3c4c(nc5nncn35)CCC4)CC2)c1 -60.8%, CCC1CCCCN1S(=O)(=O)c1ccc(NC(=O)c2cc(=O)c3c(C)cc(C)cc3o2)cc1 (centres undefined) 5.17%, CC(C)Sc1nc2sc3c(c2c(=O)n1Cc1ccccc1)CCCC3 -25.5%, COC(=O)c1cc2oc3ccccc3c2n1Cc1nc(-c2ccccc2Cl)oc1C -7.25%, CC1(C)CC(=O)c2cc(-c3nc(-c4ccccc4)cs3)c(=O)[nH]c2C1 29.6%, Cc1ccc(NC(=O)C2CCN(S(=O)(=O)c3c(C)noc3C)CC2)cc1 8.5%, O=C(NCCN1CCN(c2ccccc2)CC1)Nc1cccc(Br)c1 -15%, CCOc1ccc(NC(=O)CSc2nc3ccsc3c(=O)n2C(C)CC)cc1 (centres undefined) -8.74%, CCOc1ccccc1CNC(=O)Cc1ccc(NC(=O)N2CCCCc3ccccc32)cc1 -9.48%, COc1ccc(Nc2nc(-c3cccc(Cl)c3)c3c(n2)-c2ccccc2OC3)cc1 -29.2%, CCOc1ccc(CCNC(=O)CCc2c(C)nc3c(c(C)nn3-c3ccc(C)c(C)c3)c2C)cc1 16.1%, CCCCNS(=O)(=O)c1ccc2nc(-c3cccnc3)cc(C(=O)NCCCOC(C)C)c2c1 -5.49%, Cc1ccc2nc(NCc3ccccc3)c3nnnn3c2c1 -17.7%, COc1ccc(-c2noc(N3CCC(C(=O)N4CCN(c5ccccc5OC)CC4)CC3)n2)cc1 13.8%, Cc1cccc2c1-c1sc(C(=O)N3CCN(c4ccccc4)CC3)cc1CO2 -2.27%, CCOC(=O)c1cnc2c(C)c(Cl)ccc2c1NCCc1ccc(OC)c(OC)c1 -26.8%, CCOc1cccc(Nc2nn(-c3ccc(OC(F)(F)F)cc3)nc2C(C)=O)c1 -6.96%, CCC(C)NC(=O)CSc1nc2cc3c(cc2c(=O)n1CCCC(=O)NCCc1ccc(OC)c(OC)c1)OCO3 (centres undefined) -9.25%, COc1cccc(-c2nc(S(=O)(=O)c3ccccc3)c(N3CCCCC3)o2)c1 23.5%, COCCNC(=O)c1ccc2c(=O)n(CCc3ccccc3)c(SCC(=O)CC(=O)OC)nc2c1 -3.74%, CC(=O)OCC1=C(C(=O)O)N2C(=O)[C@@H](NC(=O)CSc3ccncc3)[C@H]2SC1 5.32%, COc1ccccc1CNC(=O)c1ccc(CS(=O)(=O)c2c(Cl)cccc2Cl)o1 18.2%, Cc1cccc(OCCSc2nc3ccccc3n2CC(=O)N2CCOCC2)c1 -14.5%, CCOC(=O)c1ccc(N2C(=O)c3[nH]nc(-c4ccc(C)cc4)c3C2c2ccc(O)c(OCC)c2)cc1 (centres undefined) -7.84%, CCOC(=O)c1c(C)[nH]c(C)c1S(=O)(=O)N(C)CC(=O)Nc1cc(Cl)ccc1C 1.25%, CCCn1c(=O)c2sccc2n2c(CCCC(=O)N3CCN(c4ccccc4OC)CC3)nnc12 -3.91%, Cc1ccccc1OCCCCn1c(-c2ccc(Cl)cc2)nc2ccccc2c1=O 12.2%, CCc1ccc(CNC(=O)c2c3c(nc4ccccc24)C(=O)N(C2CCCCC2)C3)cc1 -21.1%, COc1cc2c(=O)c(C(=O)c3ccc(C)c(C)c3)cn(Cc3ccccc3F)c2cc1OC 20.7%, Cc1ccc2c(=O)cc(C(=O)Nc3sc4c(c3C(=O)NCc3ccco3)CCC4)oc2c1 18.3%, COc1cc(NC(=O)CCc2c(C)nn(-c3ccc(N4CCOCC4)nn3)c2C)cc(OC)c1OC 5.49%, O=C(NCc1ccccc1F)C1CCN(c2nnc(-n3cccc3)s2)CC1 30.8%, COc1ccc2c(c1)c(=O)c(C(=O)c1ccccc1)cn2CC(=O)Nc1ccc2c(c1)OCCO2 -29.2%, COc1ccc(Cl)cc1NC(=O)Cn1ncc2c3ccccc3n(C)c2c1=O 4.27%, CCCCCCCCCCCCCCNCCO 12%, Cc1ccc2[nH]c3c(=O)n(CC(=O)NCc4ccco4)ncc3c2c1 8.65%, CCCN(Cc1cccs1)C(=O)Nc1cc(Cl)ccc1C -5.54%, Cc1nn(CC(=O)NCc2ccc(F)cc2)c2ccccc12 -13.1%, Cc1ccc(OCCSc2nnc(-c3cccs3)o2)cc1Cl 20.7%, Cc1ccc(C)c(N2CCN(C(=O)CCC(=O)Nc3ccc4nc(N5CCCCC5)cc(C)c4c3)CC2)c1 39.3%, O=C(NCc1ccc(Cl)cc1)c1ccc2c(Cl)c3c(nc2c1)CCCC3 -19.4%, CC(=O)Nc1ccc(NC(=O)C2CCN(c3c(NC(C)=O)c(C)nn3-c3ccccc3)CC2)cc1 -2.14%, CCOC(=O)c1ccc2nc(C)cc(Nc3cccc(C(=O)O)c3)c2c1 -9.84%, CCOC(=O)c1c(C)n(-c2ccccc2)c2ccc(OC(=O)c3ccccc3NC(=O)C(C)C)cc12 43.6%, CCOC(=O)c1cccc(NC(=O)CCCn2nc(C)c3c(C)n(-c4ccccc4)nc3c2=O)c1 1.99%, COc1ccc(-c2nc3cc(C(C)C)ccc3o2)cc1NC(=O)c1ccccc1[N+](=O)[O-] -24.6%, Cn1c(SCC(=O)Nc2ccccc2)nnc1-c1ccccc1 -3.28%, COc1ccc(Cl)cc1-n1nnc(-c2nc(-c3ccccc3)no2)c1C -5.99%, COc1ccc(NC(=O)C2COc3ccccc3C2)cc1Cl (centres undefined) -20.8%, Cc1ccc(Cn2c(CN3CCC(C(=O)NCc4ccccc4C)CC3)cc3ccccc32)cc1 4.89%, CCOc1ccccc1CNC(=O)CCn1c(=O)c2cccn2c2ccc(F)cc21 -17.6%, COc1ccc2c(c1)c(=O)c(C(=O)c1ccc(C)c(C)c1)cn2CC(=O)Nc1ccc2c(c1)OCCO2 -1.31%, Cc1ccc(CNc2nc(-c3ccco3)nn2S(C)(=O)=O)cc1 -8.03%, COC(=O)c1ccc(NC(=O)CCS(=O)(=O)c2ccc(Br)s2)cc1 -13.5%, Cc1nc(N2CCCC2)ncc1C(=O)NCc1cccc(Cl)c1 31.9%, COc1ccccc1N1CCN(C(=O)Cn2c(=O)n3nc(-c4ccc(C)cc4)nc3c3ccccc32)CC1 -0.132%, COc1ccc(NC(=O)c2cccc(N3CCCS3(=O)=O)c2)cc1OC 33.7%, Cc1ccc2c(n1)Oc1ccc(C(C)C(=O)OCC(=O)N(C)C)cc1C2 (centres undefined) 1.2% and 4.74%, COc1ccc(C(=O)CSc2nc(C)cc(C)c2C(=O)Nc2ccccc2C)cc1 -20.8%, COc1ccc(C)cc1NC(=O)CN1c2ccccc2S(=O)(=O)c2ccccc21 -4.93%, Cc1nnc(N2C(=O)c3oc4ccccc4c(=O)c3C2c2ccc(C(C)(C)C)cc2)s1 (centres undefined) -10.8%, CCc1ccc(NC(=O)CSc2nc3ccccc3nc2Cc2ccc(C)cc2)cc1 2.97%, COC(=O)c1ccc(NC(=O)CC2C(=O)N(c3cccc(OC)c3)C(=O)N2Cc2ccco2)cc1 (centres undefined) -16%
